Experimental data as given in ChEMBL document CHEMBL4888484, “Replenishing the malaria drug discovery pipeline: Screening and hit evaluation of the MMV Hit Generation Library 1 (HGL1) against asexual blood stage Plasmodium falciparum ,using a nano luciferase reporter read-out” (2022).
The campaign covered roughly 150,000 compounds. About 540 (0.36%) showed an effect of 50% or more. The list shows a part of the results.

These compounds were tested on Plasmodium falciparum (assay: Primary screen in NF54 nanoGlo assay, in single point, at 2uM, 72h; a lower Z score goes with more inhibition). Details: timepoint 72 hour.
Type: functional, Erythrocyte

| SMILES | % Inhibition [%] | Z score |
| --- | --- | --- |
| Cc1cccc(NCc2ccnc(OCC(F)F)c2)n1 | 0 | 0.07 |
| CO[C@@H](C)CS(=O)(=O)Nc1cccc(-n2cc(C)[nH]c2=O)c1 | -10 | 0.87 |
| CC(C)(NC(=O)CCCc1ccccn1)c1cc(C(F)F)on1 | 4 | -0.74 |
| O=C(Nc1cccnc1)c1c(-c2ccccc2)c(-c2ccccc2)n[nH]c1=O | -2 | 0.37 |
| COc1cccc(-n2c(=O)n(C3CCCC3)c(=O)c3c2ncn3Cc2ccc(C(C)(C)C)cc2)c1 | -5 | 0.63 |
| Cn1cc(CN2CCCC[C@@H]2CCc2ccccc2)cn1 | -2 | 0.2 |
| CCS(=O)(=O)c1ccc(N2CCC(Cn3cncn3)CC2)cc1 | -1 | 0.13 |
| O=C(O)c1csc(-n2nc(-c3ccc(Br)cc3)cc2C(F)(F)C(F)F)n1 | 35 | -3.94 |
| COc1cccc(C(=O)N2[C@H](C(=O)NCc3ccccc3)COC23CCN(C(=O)c2ccccc2F)CC3)c1 | -3 | 0.51 |
| COc1cccc(NC(=O)c2ncoc2-c2ccco2)c1 | -14 | 1.4 |
| Cc1ccc(NC(=O)COc2ccc([C@H]3Nc4ccccc4S(=O)(=O)N3Cc3ccccc3)cc2)cc1 | 35 | -3.98 |
| COc1ccc(CN(Cc2ccco2)C(=O)c2ccccc2OC)cc1OS(=O)(=O)c1ccc(F)cc1 | -12 | 1.28 |
| O=C(Cc1cccs1)N1CCN(C(=O)c2ccccc2)CC1 | -1 | 0.14 |
| Cc1nn(-c2ncc(C(F)(F)F)cc2Cl)c(=O)n1-c1cccc(C(F)(F)F)c1 | -1 | 0.11 |
| CC1(C)OC[C@H](CNC(=O)Nc2nncs2)O1 | -32 | 3.71 |
| COc1ccc(N2CCC(C(=O)Nc3cccc(NC(C)=O)c3)CC2)nn1 | -5 | 0.63 |
| CC(C)N1CCC[C@H](N2CCS(=O)(=O)CC2)C1=O | 10 | -1.17 |
| CCC(C)(C)C(=O)Nc1ccc(Cl)cn1 | -2 | 0.21 |
| CC(C)(C)OC(=O)N1CCC2(CC(O)c3cc(OCc4ccccc4)ccc3O2)C1 (stereo unspecified) | -8 | 1.05 |
| Cc1oc(-c2ccccc2)c(C(=O)N[C@H]2CCS(=O)(=O)C2)c1C | 2 | -0.23 |
| Cc1ccc(CN2CCC(N3C(=O)C4CCCN4C3=O)C2=O)cc1 (stereo unspecified) | -10 | 1.32 |

| SMILES | % Inhibition [%] | Z score |
| --- | --- | --- |
| CC(C)c1nnc(NC(=O)c2cccc(Nc3cnccn3)c2)s1 | 11 | -1.72 |
| O=C(NCc1ccccc1Br)c1cncn1-c1cccc(-c2ccccc2C(F)(F)F)c1 | -11 | 1.65 |
| C[C@H](O)c1nc2cc(NC(=O)CN3CCCCCC3)ccc2[nH]1 | 12 | -1.6 |
| O=C([C@H]1CC12CCN(Cc1cccc3c1OCO3)CC2)N1CCN(C/C=C/c2ccccc2)CC1 | -10 | 1.31 |
| COCCc1ncc(-c2cc(C(=O)N3CCCCC3)c3ccc(C)c(C)c3n2)cn1 | 5 | -0.64 |
| Cc1cc(S(=O)(=O)NC[C@@]2(C)CCC(=O)N2)c(C)o1 | -8 | 1.1 |
| Cc1ccc(-n2nc(O[C@@H](C)C(=O)Nc3ccc(F)c(F)c3)ccc2=O)cc1C | -24 | 3.78 |
| Cc1cnc(C[C@H]2CCCN(C(=O)c3ccoc3)C2)n1CC1CC1 | 4 | -0.6 |
| COc1ccccc1CN1CC[C@H]2CC(=O)Nc3cc(C(C)C)ccc3OCC[C@H]2C1 | 11 | -1.68 |
| CCC(C)(C)C#Cc1ccc(C(=O)NC[C@H](O)CO)nc1 | -6 | 0.86 |
| Cc1ccc(C(=O)N2CCc3cc(Cl)c(Cl)cc3[C@@H]2C)c(=O)[nH]1 | 0 | -0.04 |
| Cc1ccc2c(c1)N(CC(=O)NCc1ccccc1Cl)C=NS2(=O)=O | -21 | 2.44 |
| O=C(NCc1ccccc1)[C@@H]1COC2(CCN(C(=O)c3ccc4c(c3)OCO4)CC2)N1C(=O)c1ccco1 | -14 | 1.21 |
| CC1CCN(CC[C@@H]2CC[C@H](O)[C@@H](C(=O)Nc3ccccc3)O2)CC1 | -11 | 1.68 |
| Cc1nc(NC(=O)CS(=O)(=O)N(C)C)n(C)n1 | 4 | -0.51 |
| NC(=O)c1cccc(CN[C@H](c2ccc(Cl)cc2)C2CCCC2)c1 | -4 | 0.58 |
| Cc1nn(C)c(C)c1CCc1nc(-c2ccco2)n[nH]1 | 2 | -0.44 |
| CCS(=O)(=O)N(C)C1CCN(C(=O)[C@H](C)N(C)CC(F)(F)F)CC1 | -2 | 0.3 |
| COc1cccc2c1CC[C@H](NCc1nc(C(F)(F)F)cs1)C2 | -17 | 1.75 |
| COc1ccc(Cl)cc1NC(=O)Cc1c(C)nc2nc(-c3ccccc3C)nn2c1C | 30 | -0.56 |
| NC(=O)C[C@H](NCc1cccs1)C1CCCCC1 | -14 | 1.56 |

| SMILES | % Inhibition [%] | Z score |
| --- | --- | --- |
| C1CCC([C@@H]2CCCCCN2Cc2nnc3n2CCCC3)CC1 | 8 | -1.37 |
| NC(=C(C(=O)c1ccccc1)C(=O)c1ccccc1)c1nonc1N | -7 | 0.91 |
| O=C(NC1CCCCCC1)c1cncc(C(=O)NC2CCCCCC2)c1 | -5 | 0.55 |
| C[C@H]1COCCN1C(=O)c1nn(C)c(=O)c2ccccc12 | -2 | 0.35 |
| O=C(CCc1ccco1)Nc1ccc(-c2nnc3n2CCCCCC3)cc1 | -24 | 3.75 |
| COc1ccc(-c2nn(-c3ccccc3C)cc2CN(C)Cc2cnn(C)c2)cc1F | 3 | -0.55 |
| CCc1ccc(CNCC2CN(C(=O)OC(C)(C)C)C2)cc1 | -1 | 0.11 |
| CCN(CC)S(=O)(=O)c1ccc2c(c1)ncn2CCC(=O)Nc1ccc(C)cc1 | 0 | -0.02 |
| Cc1ccsc1CN(C)c1nnnn1-c1ccccc1 | -13 | 1.61 |
| Cc1ccsc1CCNc1nnc(C2CCC2)o1 | 3 | -0.36 |
| CN(C)c1ccccc1N(C)Cc1nc(N)nc(N)n1 | 27 | -3.47 |
| C[C@H]1CS(=O)(=O)N(c2cccc(C(=O)NCc3ccco3)c2)C1=O | -16 | 1.75 |
| Cc1cccc(-c2nc3n(CC(=O)N4CCCCC4)c(C)cc(=O)n3n2)c1 | 1 | -0.17 |
| Cc1ccc(-c2nc3nc(-c4ccc(F)cc4)cn3nc2-c2ccc(C)cc2)cc1 | -5 | 0.62 |
| Cc1ccnc(N2CC[C@]3(CCOC3)C2)n1 | -12 | 1.23 |
| Cc1cnc(-n2cnnc2)c(-c2cccnc2)c1 | 0 | 0.05 |
| C=C(C)CNC(=O)CC(=O)Nc1ccc(OC)cc1OC | -10 | 0.98 |
| CC(=O)Nc1ccc(C(=O)N2CCCN(CCn3nc(C)cc3C)CC2)cc1 | -12 | 1.92 |
| CC(NC1CCc2[nH]ncc2C1)c1cccc(F)c1 (stereo unspecified) | -9 | 1.07 |
| CNC(=O)C[C@H](C)N(C)Cc1cncn1C(C)C | -5 | 0.63 |
| CC(C)C[C@H](C)OC(=O)N1CCC(NC(=O)N2CCOCC2)CC1 | -6 | 0.81 |

| SMILES | % Inhibition [%] | Z score |
| --- | --- | --- |
| COc1ccc(C[C@](C)(O)CNS(=O)(=O)c2cnn(C)c2)cc1 | -8 | 1.36 |
| CC(C)c1nnc(NC(=O)C[C@@H]2C=CCC2)s1 | 4 | -0.35 |
| CC(C)CN(CC(=O)Nc1nc(-c2ccccc2)cn1-c1ccc(C(F)(F)F)cc1)C(=O)c1ccco1 | -6 | 0.52 |
| CN1CCC[C@H](C(=O)Nc2ccccc2C(=O)NCc2ccccn2)C1 | 19 | -3.21 |
| Cc1c[nH]c(CNc2ccc(C(F)(F)F)nn2)c(C)c1=O | -6 | 0.76 |
| O=C1COc2cc(NS(=O)(=O)c3cc(F)ccc3F)c(Br)cc2N1 | 0 | 0.02 |
| Cc1cc(C(=O)N2CCN(c3cc(Cl)ccc3C)CC2)on1 | -17 | 1.59 |
| CCc1csc(CNC(=O)c2ccc(N3CCN4CCC[C@H]4C3)nc2)n1 | -5 | 0.87 |
| COc1ccc(-n2nc(C)c3c2NC(=O)C[C@@H]3c2ccc(C(C)C)cc2)nn1 | -6 | 1.1 |
| CC(C)c1nnc(-c2ccc3c(c2)OCO3)o1 | -9 | 1.29 |
| Cn1cc([C@H]2CN(C/C=C/c3ccccc3)C[C@H]2CC(=O)O)nn1 | -19 | 1.89 |
| CC#CCN1C(=O)N[C@@](CCCc2ccccc2)(C2CCN(Cc3cc4ccccc4[nH]3)CC2)C1=O | 17 | -2.15 |
| Cn1c2c(c3ccccc31)C(C)(C)Cc1c-2cnn1-c1ccccc1 | -10 | 1.87 |
| O=C(NCCN1CCc2ccccc2C1=O)c1cccs1 | -16 | 2.88 |
| c1nc(N2CCN(CCc3cscn3)CC2)c2ccsc2n1 | -16 | 2.19 |
| Cc1ncsc1C(=O)NCCCOC[C@H]1CCCO1 | 0 | -0.01 |
| COc1ccc(CC(=O)N2CCN(S(=O)(=O)N3CC(C)OC(C)C3)CC2)cc1 (stereo unspecified) | 4 | -0.49 |
| Cc1nonc1OCCn1cnc(-c2ccccc2)c1[C@H]1CCOC1 | -8 | 1.09 |
| CCCc1cc(N2CCc3nn(CC)c(=O)cc3C2)n2ncnc2n1 | -6 | 0.63 |
| Cc1ccc(C(=O)NCC(F)(F)F)o1 | -10 | 0.91 |
